# Measured values reported in PubChem BioAssay AID1347165 (National Center for Advancing Translational Sciences (NCATS), 2019).
# In all, about 220,000 compounds went through this assay and about 5,700 (2.6%) were called active. Inconclusive results, whose numbers are uncertain, are shown with a selection of clear calls. The call rests on the fitted dose curve; in most records, active means well fitted inhibition curve with a large enough effect; inconclusive means small, poorly fitted or top-dose-only effect; inactive means no such curve, though single readings can be large or run the other way. Where the call is inconclusive, the potency comes from a doubtful curve fit.
# Target: Lysine-specific demethylase 5B (Homo sapiens) (UniProt Q9UGL1)
# Test: Primary screen for KDM5B Histone Demethylases FDH-coupled qHTS; further: nearly all actives have a fitted effect of over 70% in size
# Settings: FDH-coupled NADH fluorescence (FDH is formaldehyde dehydrogenase); series mostly up to 57.7 µM
# In short: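 Coupled FDH/NAD⁺ fluorescence readout. KDM5BΔAP 200 nM final; compound titration, 10 min RT preincubation; substrate mix 12.5 µM H3K4me3, 25 µM 2-OG, 50 µM Fe(II), 100 µM ascorbate, 0.25 mM NAD⁺, 0.25 U/mL FDH; ΔRFU over 30 min.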
# Potency means the concentration at half of the fitted maximal effect; tags describe the fitted curve by direction and shape.
# UniProt Q9UGL1, sequence (Q9UGL1 whole entry, looked up): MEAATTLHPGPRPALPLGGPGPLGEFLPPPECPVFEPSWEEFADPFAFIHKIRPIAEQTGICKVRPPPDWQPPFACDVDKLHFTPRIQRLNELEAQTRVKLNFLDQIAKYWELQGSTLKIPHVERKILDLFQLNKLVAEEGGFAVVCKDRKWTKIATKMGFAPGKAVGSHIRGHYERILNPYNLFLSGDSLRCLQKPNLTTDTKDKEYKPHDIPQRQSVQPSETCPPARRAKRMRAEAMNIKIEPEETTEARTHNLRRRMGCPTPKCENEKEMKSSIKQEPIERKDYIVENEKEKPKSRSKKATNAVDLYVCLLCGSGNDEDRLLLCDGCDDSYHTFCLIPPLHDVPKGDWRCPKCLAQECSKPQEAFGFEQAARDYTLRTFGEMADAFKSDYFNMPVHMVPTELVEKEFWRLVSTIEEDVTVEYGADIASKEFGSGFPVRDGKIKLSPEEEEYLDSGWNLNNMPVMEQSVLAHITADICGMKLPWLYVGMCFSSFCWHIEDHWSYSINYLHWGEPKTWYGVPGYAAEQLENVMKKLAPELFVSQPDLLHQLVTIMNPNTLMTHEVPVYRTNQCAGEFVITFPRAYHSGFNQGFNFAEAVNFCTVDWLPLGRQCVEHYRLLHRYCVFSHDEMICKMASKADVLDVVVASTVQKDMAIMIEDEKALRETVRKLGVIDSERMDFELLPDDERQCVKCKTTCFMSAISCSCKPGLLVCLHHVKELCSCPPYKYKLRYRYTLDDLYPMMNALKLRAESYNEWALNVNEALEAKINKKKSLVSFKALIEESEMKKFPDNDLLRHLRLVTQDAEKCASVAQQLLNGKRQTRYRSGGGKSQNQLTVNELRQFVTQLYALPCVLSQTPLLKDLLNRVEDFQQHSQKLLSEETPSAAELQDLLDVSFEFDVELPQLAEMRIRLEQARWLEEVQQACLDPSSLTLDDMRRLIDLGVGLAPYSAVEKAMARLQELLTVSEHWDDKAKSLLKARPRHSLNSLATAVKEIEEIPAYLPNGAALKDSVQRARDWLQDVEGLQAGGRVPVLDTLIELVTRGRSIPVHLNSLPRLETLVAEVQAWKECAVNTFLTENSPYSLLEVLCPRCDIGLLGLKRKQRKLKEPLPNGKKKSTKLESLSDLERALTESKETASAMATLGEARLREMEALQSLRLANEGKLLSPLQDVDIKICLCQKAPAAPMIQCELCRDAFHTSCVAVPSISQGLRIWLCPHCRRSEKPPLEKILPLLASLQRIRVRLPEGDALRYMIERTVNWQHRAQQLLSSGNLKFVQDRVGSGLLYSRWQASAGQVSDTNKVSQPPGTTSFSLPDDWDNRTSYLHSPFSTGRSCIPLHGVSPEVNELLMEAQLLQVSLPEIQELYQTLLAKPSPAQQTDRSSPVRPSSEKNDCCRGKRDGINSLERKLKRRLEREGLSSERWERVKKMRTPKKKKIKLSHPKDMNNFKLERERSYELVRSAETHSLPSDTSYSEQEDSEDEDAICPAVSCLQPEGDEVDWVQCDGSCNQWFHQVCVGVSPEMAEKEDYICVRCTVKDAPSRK
row,SMILES,Potency
1,CC1=CCC2C(C)(C)C(O)CCC2(C)C1COc1ccc2ccc(=O)oc2c1 (configuration not stated),"inconclusive: 31.6 µM [inhibitor, partial curve, poor fit]"
2,CN1c2cc(C(=O)Nc3ccc(Br)cc3)ccc2C(=O)N2CCCCCC21 (configuration not stated),"inconclusive: 25.1 µM [inhibitor, partial curve, poor fit]"
3,Cc1ccc(COc2ccc3oc(-c4ccccc4)c(C(=O)O)c3c2)cc1,"inconclusive: 31.6 µM [inhibitor, partial curve, poor fit]"
4,COc1ccc(-c2nc(CSCC(=O)NCCCN3CCOCC3)c(C)o2)cc1OC,"inconclusive: 35.5 µM [inhibitor, partial curve, poor fit]"
5,COc1ccc(/C=C/C(=O)N2CCC(c3nc4ccccc4o3)CC2)cc1OC,"inconclusive: 28.2 µM [inhibitor, partial curve, poor fit]"
6,C[C@H]1CC(=O)[C@@]23COC4OC(c5ccoc5)CC41[C@@H]2CCCC31CO1 (some centres not stated),inactive
7,Cn1nc(OC(C)(C)C(=O)NCCOc2ccccc2)c2cc(CN3CCCC3)ccc21,active: 39.8 µM
8,CCOc1ccccc1NC(=O)N(C)CCc1c(C)nn(CC)c1C,"inconclusive: 14.1 µM [inhibitor, partial curve, poor fit]"
9,Cc1ccc(-c2nc3ccccn3c2Nc2ccc3c(c2)OCCO3)s1,"inconclusive: 31.6 µM [inhibitor, partial curve, poor fit]"
10,CCNC(=O)c1cccc(NC(=O)C2CCCC2)c1,inactive
11,O=C(Cn1cnnn1)N1CCC(c2nccn2Cc2cccnc2)CC1,"inconclusive: 17.8 µM [inhibitor, partial curve]"
12,O=C(Cc1ccc(NC(=O)N2CCSc3ncccc32)cc1)NCc1ccccc1,"inconclusive: 31.6 µM [inhibitor, partial curve, poor fit]"
13,N#Cc1cnc2ccc(Cl)cc2c1Nc1cccc(C(F)(F)F)c1,"inconclusive: 12.6 µM [inhibitor, partial curve, poor fit]"
14,COc1ccc(/C=C(\C#N)C(=O)Nc2ccccn2)cc1,"inconclusive: 35.5 µM [inhibitor, single point]"
15,COc1cccc(-c2ccnc3c(-c4ccc(F)cc4)c(C)nn23)c1,inactive
16,COCCN1CCCC2(CCN(c3ccc4ccccc4n3)C2)C1=O (configuration not stated),"inconclusive: 25.1 µM [inhibitor, partial curve, poor fit]"
17,Cc1ccc(CN2C(=O)c3ccccc3Sc3ccc(C(=O)NCc4ccco4)cc32)cc1,"inconclusive: 1.58 µM [inhibitor, full curve, poor fit]"
18,CN(Cc1ccccc1)C(=O)C[C@@H]1CCNC[C@@H]1Cc1cc(-c2ccc(F)cc2)on1,"inconclusive: 56.2 µM [inhibitor, single point]"
19,Cc1ccc(C2C3=C(COC3=O)Nc3n[nH]c(C)c32)cc1 (configuration not stated),"inconclusive: 25.1 µM [inhibitor, partial curve, poor fit]"
20,COC(=O)CSc1nc(N)c2c3c(sc2n1)CCCC3C (configuration not stated),"inconclusive: 35.5 µM [inhibitor, single point]"
21,O=C(c1ccccc1Br)N(Cc1cccc2[nH]ccc12)C1CC1,inactive

row,SMILES,Potency
1,COCc1cc(=O)n(CC(=O)Nc2cc(C(F)(F)F)ccc2Cl)c(N2CCOCC2)n1,"inconclusive: 15.8 µM [inhibitor, partial curve]"
2,Cc1[nH]nc2c1C(c1ccccc1Br)C1=C(COC1=O)N2 (configuration not stated),"inconclusive: 25.1 µM [inhibitor, partial curve, poor fit]"
3,CC(C)C[C@@H]1N[C@H](C(=O)NCCN(C)C)Cc2cn(CC3CC3)c3cccc1c23,active: 28.2 µM
4,COc1ccccc1CNC[C@H]1Cn2cc(-c3ccc(C)cc3)nc2CO1,inactive
5,CCCOc1cccc(-c2nc(C(=O)NCC)cs2)c1,"inconclusive: 31.6 µM [inhibitor, single point]"
6,Cn1c(=O)c2c(c3ccccc31)OC(=O)CC2c1c[nH]c2ccccc12 (configuration not stated),inactive
7,CCOc1ccc2[nH]c3c(NCCCOC)ncnc3c2c1,"inconclusive: 20 µM [inhibitor, partial curve, poor fit]"
8,N#Cc1ccc(CN2CC3CCC(C2)N3c2ccc(C(F)(F)F)cc2)cc1,"inconclusive: 20 µM [inhibitor, partial curve]"
9,NC(N)=N/N=C/C#Cc1ccccc1,inactive
10,CC(C)c1noc(CCCC(=O)NC(C)c2cccs2)n1 (configuration not stated),inactive
11,CCN(CC)c1cc(CCC(=O)NCCc2ccccn2)ccn1,"inconclusive: 7.94 µM [inhibitor, partial curve]"
12,COc1cccc(CNc2nc3ccc(C)cc3nc2-n2nc(C)cc2C)c1,"inconclusive: 35.5 µM [inhibitor, partial curve, poor fit]"
13,Cc1cc(C)n(Cc2ccc(C(=O)N3CCC(c4noc(-c5cccnc5)n4)C3)o2)n1 (configuration not stated),inactive
14,Cc1noc(-c2ccccc2Cl)c1C(=O)NC(C)c1ccccc1 (configuration not stated),inactive
15,CCOC(=O)C(NC(=O)/C=C/c1cc(Cl)c(OCC)c(OC)c1)C(=O)OCC,"inconclusive: 7.94 µM [inhibitor, partial curve, poor fit]"
16,O=C(Cn1c(-c2cccs2)cc2ccccc21)NCCCN1CCN(c2ccc(F)cc2)CC1,"inconclusive: 35.5 µM [inhibitor, partial curve, poor fit]"
17,CC(C)Oc1ccc(Br)cc1C(=O)N/N=C/c1c[nH]c2ccccc12,"inconclusive: 35.5 µM [inhibitor, single point]"
18,Cc1noc(C)c1-c1cc2cc(CO)oc2c(-c2ccc(F)c(Cl)c2)n1,active: 31.6 µM
19,CCC(CO)Nc1nc(-c2ccco2)c2c(c1C#N)CCCC2 (configuration not stated),"inconclusive: 25.1 µM [inhibitor, partial curve, poor fit]"
20,O=C(NC1CCCC1)c1ccc(CSc2nc3cccnc3n2Cc2ccccc2F)cc1,"inconclusive: 31.6 µM [inhibitor, partial curve, poor fit]"
21,C=CCn1c(=NC(=O)C2COc3ccccc3O2)sc2cccc(OC)c21 (configuration not stated),"inconclusive: 28.2 µM [inhibitor, partial curve, poor fit]"
